Assay results as given in the supplement of paper PMC12217912.
This is one part of the list. Sequences were assembled here from the parent chain. Inactive controls read about 0.05.

B1: TEV protease; numbered along this chain (parent)
chain: MGESLFKGPRDYNPISSSICHLTNESDGHTTSLYGIGFGPFIITNKHLFRRNNGTLVVQSLHGVFKVKDTTTLQQHLVDGRDMIIIRMPKDFPPFPQKLKFREPQREERICLVTTNFQTKSMSSMVSDTSCTFPSGDGIFWKHWIQTKDGQCGSPLVSTRDGFIVGIHSASNFTNTNNYFTSVPKNFMELLTNQEAQQWVSGWRLNADSVLWGGHKVFMVKPEEPFQPVKEATQL

Variants of: B1
Assay: raw area under fraction-flipped curve 0-4 h after induction (AUC4h, not background-subtracted), DNA-recorder readout of cleavage of the substrate (dimensionless); higher = more cleavage of the substrate by the protease variant
Details: temperature: 34 °C; time window: 0-4 h after rhamnose induction
Procedure: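 In vivo DNA recorder in E. coli TOP10(DE3) ΔrhaA at 34 °C. Each TEVp single-site mutant (parent TEVp 0) is paired with a single-site variant of the 7-mer TEVs (canonical ENLYFQ|S). The substrate sits between flexible linkers in a Bxb1-sfGFP-TEVs-SsrA fusion, so cleavage stabilises Bxb1 and speeds flipping of a recombination array, read by NGS. The value is the raw area under the fraction-flipped curve over 0-4 h after rhamnose induction (AUC4h), with ≥20 reads per time point. It is not background-subtracted; inactive controls average about 0.047.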
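Note: Bxb1 expression induced with 0.2% (w/v) L-rhamnose at OD600 near 0.5, cultures sampled hourly, flipped fraction per protease–substrate barcode pair counted by paired-end Illumina sequencing.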

| Variant | area with substrate ENLYFAS | area with substrate ENLYFCS | area with substrate ENLYFES | area with substrate ENLYFFS | area with substrate ENLYFHS | area with substrate ENLYFIS | area with substrate ENLYFKS | area with substrate ENLYFMS | area with substrate ENLYFNS | area with substrate ENLYFPS | area with substrate ENLYFSS | area with substrate ENLYFTS | area with substrate ENLYFWS | area with substrate ENLYFYS | area with substrate ENLYFDS | area with substrate ENLYFGS | area with substrate ENLYFRS | area with substrate ENLYFVS | area with substrate ENLYFLS |
| --- | --- | --- | --- | --- | --- | --- | --- | --- | --- | --- | --- | --- | --- | --- | --- | --- | --- | --- | --- |
| F140L | 0.0476 | 0.055 | 0.0546 | 0.0732 | 0.0529 | 0.0572 | 0.0631 | 0.0499 | 0.0707 | 0.0294 | 0.0603 | 0.0576 | 0.0545 | 0.0469 | – | – | – | – | – |
| F140V | 0.0507 | 0.0532 | 0.0614 | 0.0766 | 0.0535 | 0.0561 | 0.0545 | 0.0492 | 0.0608 | 0.0617 | 0.0619 | 0.0446 | 0.0528 | 0.0543 | 0.0648 | 0.0552 | 0.0561 | 0.0358 | – |
| S127I | 0.0668 | 0.0546 | 0.0435 | – | 0.0562 | 0.0553 | 0.0597 | 0.071 | – | 0.0473 | 0.0537 | 0.0573 | 0.0549 | 0.0603 | 0.0597 | 0.0503 | – | 0.0536 | 0.0676 |
| D149T | 0.0672 | – | 0.078 | 0.086 | 0.0206 | 0.0585 | – | 0.061 | 0.0529 | 0.0465 | 0.0497 | 0.0547 | 0.0585 | 0.0619 | 0.0664 | 0.0684 | 0.051 | – | – |
| C111D | 0.0645 | 0.0368 | 0.0562 | 0.0628 | 0.058 | 0.0607 | 0.0484 | 0.0577 | 0.0521 | 0.0765 | 0.0584 | 0.0477 | 0.0624 | 0.0569 | – | 0.0627 | 0.0557 | 0.0721 | 0.0532 |
| C111H | 0.0653 | – | – | 0.0641 | 0.0418 | 0.0552 | 0.0602 | 0.0973 | 0.0627 | 0.0607 | – | 0.0609 | 0.0594 | – | – | – | 0.0318 | – | 0.0603 |
| Q118Y | 0.0567 | 0.0592 | – | 0.0876 | – | 0.0645 | – | 0.0653 | – | – | – | 0.0537 | 0.0565 | – | – | 0.057 | 0.0767 | 0.0598 | – |
| S158N | 0.0573 | 0.0488 | 0.0157 | 0.061 | – | 0.0485 | – | – | 0.0498 | 0.0513 | – | 0.0552 | 0.0553 | – | – | – | – | 0.0618 | – |
| N116L | 0.0565 | 0.0647 | – | 0.0605 | 0.0672 | 0.113 | 0.0841 | 0.0668 | – | 0.0678 | 0.062 | 0.0553 | 0.08 | – | 0.0528 | 0.065 | 0.0472 | 0.069 | – |
| N116P | 0.0523 | – | 0.0787 | 0.0756 | 0.0837 | 0.0566 | 0.0364 | 0.0523 | 0.0655 | 0.0452 | 0.0585 | 0.043 | 0.0343 | 0.0612 | – | 0.0344 | 0.0585 | – | – |
| E103T | 0.0705 | 0.0541 | 0.0537 | 0.0769 | – | 0.0476 | 0.0573 | – | 0.0636 | 0.0508 | 0.0729 | – | – | – | 0.0778 | 0.0466 | – | – | – |
| S135K | 0.0657 | – | 0.0679 | – | 0.049 | – | – | 0.0691 | – | 0.058 | – | 0.0494 | 0.0369 | – | 0.0304 | 0.0578 | – | – | – |
| S135F | 0.0588 | 0.0623 | 0.0585 | 0.0647 | 0.0607 | 0.049 | 0.0566 | 0.048 | 0.0547 | 0.0626 | 0.0581 | 0.0538 | – | 0.0583 | – | 0.0592 | 0.0526 | 0.0635 | – |
| S135N | 0.0666 | 0.059 | 0.0677 | 0.0751 | 0.0543 | 0.0592 | – | 0.0947 | 0.0564 | 0.0675 | 0.0528 | 0.0593 | 0.0769 | – | 0.0665 | 0.0606 | 0.0627 | 0.0505 | 0.0491 |
| V157E | 0.0562 | – | 0.0465 | 0.0556 | 0.063 | 0.0594 | 0.0584 | – | 0.0579 | 0.0547 | – | – | 0.0615 | – | 0.0485 | 0.0556 | 0.0488 | – | – |
| V157W | 0.0538 | – | 0.0621 | 0.0435 | 0.0567 | 0.0511 | – | – | 0.0586 | 0.053 | 0.0647 | 0.0675 | 0.062 | 0.0425 | 0.0611 | – | – | 0.0703 | – |
| V113M | 0.0695 | 0.0631 | 0.0574 | 0.0737 | – | 0.0488 | – | 0.0688 | 0.0528 | – | – | 0.0604 | – | 0.0539 | 0.0627 | 0.0588 | 0.0646 | 0.0347 | 0.0679 |
| R109L | 0.0564 | 0.0622 | – | 0.0629 | – | 0.0517 | 0.0614 | 0.0797 | 0.0662 | 0.0571 | – | 0.07 | 0.0592 | 0.0537 | 0.058 | – | – | 0.0511 | – |
| C131M | 0.0573 | – | 0.0611 | – | – | 0.0567 | – | – | – | 0.0674 | – | – | 0.0467 | – | – | – | – | – | – |
| M122I | 0.064 | – | 0.0598 | – | 0.0904 | 0.0497 | – | 0.0707 | – | 0.0657 | – | 0.0689 | 0.0545 | 0.0726 | 0.0539 | 0.0832 | 0.0437 | – | 0.0634 |
| M122V | 0.0534 | 0.0594 | 0.057 | 0.0713 | 0.0468 | 0.0584 | – | 0.0671 | – | 0.0514 | – | 0.059 | – | 0.0693 | – | – | – | 0.0575 | – |
| F117E | 0.0596 | 0.0568 | 0.0656 | 0.071 | 0.0663 | 0.0559 | 0.0647 | – | 0.0655 | 0.0536 | 0.0586 | 0.0559 | – | 0.0583 | – | – | 0.0584 | – | – |
| G136D | 0.0484 | 0.0652 | 0.054 | 0.0632 | 0.0755 | 0.0567 | 0.0711 | 0.0672 | 0.0475 | 0.0066 | 0.0643 | 0.052 | 0.0594 | 0.0698 | 0.0574 | – | – | 0.0596 | – |
| F133M | 0.0604 | 0.0608 | 0.0758 | 0.0802 | 0.0672 | 0.0534 | – | 0.0611 | 0.0662 | 0.0661 | 0.0562 | 0.0596 | 0.0639 | – | – | 0.0631 | 0.0624 | 0.0515 | 0.0626 |
| F133P | 0.0578 | – | 0.0602 | 0.0639 | 0.0516 | 0.048 | 0.0505 | 0.034 | 0.0497 | 0.0562 | – | 0.0681 | – | 0.0465 | 0.0473 | 0.0619 | 0.0523 | 0.0481 | 0.0653 |
| P134W | 0.0325 | – | 0.0701 | 0.0756 | – | 0.0661 | 0.0641 | 0.0579 | 0.0502 | 0.0382 | – | 0.0491 | 0.0578 | – | 0.0567 | 0.0258 | – | – | – |
